Data published in the CheMixHub viscosity set.

Which viscosity (303.15 K, 100 kPa) does the source give for `CCCCCCCCCCCCC` here?
The viscosity was 1.53 ± 0.07 mPa·s [study A] and 1.54 ± 0.15 mPa·s [study B] and 1.56 ± 0.034 mPa·s [study C] and 1.527 mPa·s [study D].

What about the viscosity (313.15 K, 100 kPa) of the same molecule?
Its viscosity is 1.29 ± 0.06 mPa·s [study A] and 1.178 ± 0.12 mPa·s [study B] and 1.315 ± 0.029 mPa·s [study C] and 1.291 mPa·s [study D].

With `C1C[C@@H]2[C@H]3CC[C@H](C3)[C@@H]2C1` as the molecule, how does the viscosity (313.15 K, 100 kPa) read?
The viscosity was 2.059 ± 0.045 mPa·s [study A] and 2.082 ± 0.21 mPa·s [study B] and 2.083 ± 0.048 mPa·s [study C] and 2.125 ± 0.02 mPa·s [study D].

And the viscosity (323.15 K, 100 kPa)?
The viscosity was 1.764 ± 0.04 mPa·s [study A] and 1.763 ± 0.04 mPa·s [study B] and 1.773 ± 0.041 mPa·s [study C] and 1.762 ± 0.018 mPa·s [study D].

For `CCC(=O)O`, which viscosity (303.15 K, 100 kPa) is on record?
The viscosity was 0.962 mPa·s [study A] and 0.959 ± 0.039 mPa·s [study B] and 0.96 ± 0.03 mPa·s [study C].

And the viscosity (303.15 K, 101 kPa)?
The viscosity was 0.868 ± 0.044 mPa·s [study A] and 0.9294 ± 0.02 mPa·s [study B] and 0.9663 ± 0.011 mPa·s [study C] and 0.96 ± 0.01 mPa·s [study D] and 0.958 ± 0.025 mPa·s [study E].

And the viscosity (308.15 K, 100 kPa)?
Its viscosity is 0.896 mPa·s [study A] and 0.887 ± 0.036 mPa·s [study B] and 0.89 ± 0.03 mPa·s [study C].

What about the viscosity (308.15 K, 101.33 kPa) of the same molecule?
Its viscosity is 0.894 ± 0.024 mPa·s [study A] and 0.8894 ± 0.051 mPa·s [study B] and 0.8894 ± 0.0088 mPa·s [study C] and 0.89 ± 0.05 mPa·s [study D].

And the viscosity (313.15 K, 100 kPa)?
Its viscosity is 0.843 mPa·s [study A] and 0.814 ± 0.033 mPa·s [study B] and 0.81 ± 0.03 mPa·s [study C].

What about the viscosity (313.15 K, 101 kPa) of the same molecule?
The viscosity was 0.8166 ± 0.018 mPa·s [study A] and 0.843 ± 0.011 mPa·s [study B] and 0.84 ± 0.01 mPa·s [study C] and 0.8451 ± 0.022 mPa·s [study D].

What about the viscosity (318.15 K, 100 kPa) of the same molecule?
Its viscosity is 0.798 mPa·s [study A] and 0.742 ± 0.03 mPa·s [study B] and 0.74 ± 0.02 mPa·s [study C].

± gives the uncertainty stated by the source. A number of entries come with more than one value. They are shown here; other results are not. The source may hold further records. Values that stand side by side are repeats across runs, samples, wells, individuals or studies. What stands in brackets tells the records apart. Letters count within one entry.
